# From PubChem BioAssay (Tox21)
# Values joined by “and” are separate entries in the source; they are usually repeats but may differ in a detail not shown here. Identical values can stand only once. A structure can be active in one record and inactive in another. Active and inactive are the calls of the source. Unless noted, calls follow the shape of the dose curve; as a rule, active = well fitted curve in the direction sought with a large enough effect in the repeat runs; inconclusive = weak or mixed curves; inactive = no such curve, though single readings can be large; an effect the other way counts as inactive or inconclusive.
# Experiments:
# [1] = qHTS assay to identify small molecule antagonists of the androgen receptor (AR) signaling pathway - cell viability counter screen (AID 743033; also: nearly all actives have a fitted effect of over 45% in size; also: potency is read from the fitted curve at half-maximal effect; as to activity change, negative = cytotoxicity: % is scaled to controls: 0 for no effect and ±100 for the full control effect); conditions: AR-bla HEK293 viability, CellTiter-Glo luminescence, 16 h; activity change, negative = cytotoxicity: at 58.5 µM (top of the series)
# [2] = qHTS assay to identify small molecule antagonists of the thyroid receptor (TR) signaling pathway - cell viability counter screen (AID 743064); conditions: GH3.TRE-Luc viability, CellTiter-Fluor, 24 h; activity change, negative = cytotoxic: at 70.3 µM (top of the series) unless noted; also: nearly all actives have a fitted effect of over 50% in size; also: potency is read from the fitted curve at half-maximal effect; as to activity change, negative = cytotoxic: % is scaled to controls: 0 for no effect and ±100 for the full control effect
# In short: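 In rat pituitary GH3.TRE-Luc reporter cells co-exposed to compound and 1 nM T3 for 23.5 h, cytotoxicity was assessed with CellTiter-Fluor in the same wells, read by fluorescence.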
# [3] = qHTS assay to identify small molecule antagonists of the thyroid receptor (TR) signaling pathway (AID 743065); also: nearly all actives have a fitted effect of over 55% in size; also: potency is read from the fitted curve at half-maximal effect
# In short: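 Antagonism measured as loss of luciferase signal in GH3 cells stably carrying a TRE-luciferase reporter, co-treated with compound and T3 (1 nM final) for 23.5 h at 37 C. Viability was read in the same well by CellTiter-Fluor.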
# [4] = qHTS assay to identify small molecule antagonists of the estrogen receptor alpha (ER-alpha) signaling pathway - cell viability counter screen (AID 743074; calls by dose curve;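 also: HEK293 cells carrying ER-alpha-UAS-bla reporter stimulated with 17beta-estradiol; nearly all actives have a fitted effect of over 45% in size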; also: potency is read from the fitted curve at half-maximal effect)
# [5] = test system: thyroid hormone receptor (rat, GH3 cells); assay: qHTS assay to identify small molecule agonists of the thyroid receptor (TR) signaling pathway (AID 743066; calls by dose curve; also: potency is read from the fitted curve at half-maximal effect; as to activation: % is scaled to controls: 0 for no effect and ±100 for the full control effect); conditions: GH3.TRE-Luc cells, TR agonist luciferase, 24 h; activation: at 83.9 µM (top of the series) unless noted
# [6] = qHTS assay to identify small molecule antagonists of the estrogen receptor alpha (ER-alpha) signaling pathway using the BG1 cell line - cell viability counter screen (AID 743081);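 also: compound given together with 17beta-estradiol as the ER stimulus; nearly all actives have a fitted effect of over 45% in size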; also: potency is read from the fitted curve at half-maximal effect
# [7] = qHTS assay to identify aromatase inhibitors - cell viability counter screen (AID 743084); conditions: MCF-7 aro ERE viability, CellTiter-Fluor, 24 h; activity change, negative = cytotoxicity: at 70.3 µM (top of the series);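 also: cells stimulated with testosterone during compound exposure; potency is read from the fitted curve at half-maximal effect; nearly all actives have a fitted effect of over 55% in size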
# [8] = target: Estrogen receptor (Homo sapiens) (UniProt P03372); assay: qHTS assay to identify small molecule antagonists of the estrogen receptor alpha (ER-alpha) signaling pathway (AID 743069; active = well fitted curve in the direction sought with a large enough effect in the signal ratio in the repeat runs, not every such curve was filed as active; inconclusive = weak or mixed curves, or effect the other way; inactive = no such curve, though single readings can be large or run the other way; the % refers to the signal ratio; also: potency is read from the fitted curve at half-maximal effect); conditions: HEK293 ER-alpha-UAS-bla, beta-lactamase ratio, antagonist mode; activity, negative = inhibition: at 69.4 µM (top of the series) unless noted
# Chain of UniProt P03372 (P03372 whole entry, looked up): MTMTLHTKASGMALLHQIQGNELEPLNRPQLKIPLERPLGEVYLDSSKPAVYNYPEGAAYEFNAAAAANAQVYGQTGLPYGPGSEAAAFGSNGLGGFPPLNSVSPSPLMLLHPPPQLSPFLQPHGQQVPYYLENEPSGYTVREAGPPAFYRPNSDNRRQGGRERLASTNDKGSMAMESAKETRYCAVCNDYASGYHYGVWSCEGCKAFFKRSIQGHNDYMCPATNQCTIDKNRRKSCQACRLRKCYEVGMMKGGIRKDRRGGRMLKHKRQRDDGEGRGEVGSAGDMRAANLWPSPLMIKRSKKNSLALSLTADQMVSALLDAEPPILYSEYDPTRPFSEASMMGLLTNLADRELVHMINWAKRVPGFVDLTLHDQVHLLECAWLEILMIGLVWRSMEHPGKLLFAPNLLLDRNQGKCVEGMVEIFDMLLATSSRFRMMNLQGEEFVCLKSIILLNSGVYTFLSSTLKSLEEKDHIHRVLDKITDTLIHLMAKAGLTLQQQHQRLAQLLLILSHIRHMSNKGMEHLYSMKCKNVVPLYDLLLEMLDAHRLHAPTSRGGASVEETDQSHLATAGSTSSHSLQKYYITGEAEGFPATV
# In short: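 Antagonist mode: compounds in DMSO were co-added with 17beta-estradiol to ER-alpha-bla HEK293 cells (2% charcoal-stripped serum) and left 18 h at 37C. Reporter inhibition was measured as FRET fluorescence after 2 h LiveBLAzer substrate at room temperature.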
# [9] = qHTS assay to identify small molecule antagonists of the androgen receptor (AR) signaling pathway using the MDA cell line - cell viability counter screen (AID 743041; also: nearly all actives have a fitted effect of over 45% in size; also: potency is read from the fitted curve at half-maximal effect); conditions: MDA-kb2 viability, CellTiter-Fluor, 16 h, cells co-treated with R1881 androgen agonist; viability change, negative = cytotoxic: at 70.3 µM (top of the series) unless noted
# In short: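 Viability read by CellTiter-Fluor fluorescence in the same wells as the antagonist screen, added after 15.5 h of a 16 h, 37C exposure. Human breast carcinoma MDA-kb2 AR-luc cells, compounds co-dosed with agonist R1881.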
# [10] = qHTS assay to identify small molecule antagonists of the estrogen receptor alpha (ER-alpha) signaling pathway using the BG1 cell line (AID 743080; calls by dose curve;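 also: BG1 cells stimulated with 17beta-estradiol alongside compound; nearly all actives have a fitted effect of over 25% in size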; also: potency is read from the fitted curve at half-maximal effect; as to activity change, negative = inhibition: % is scaled to controls: 0 for no effect and ±100 for the full control effect); conditions: BG1Luc4E2 ERE-luciferase antagonist mode, luminescence; activity change, negative = inhibition: at 70.3 µM (top of the series) unless noted
# In short: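 After 5 days in phenol-red-free 10% charcoal-stripped FBS medium, BG1-Luc-4E2 cells were seeded, left 24 h at 37 C, co-treated with compounds and 17beta-estradiol for 21.5 h, then assayed for viability and luciferase.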
# [11] = target: Estrogen receptor (Homo sapiens) (UniProt P03372); assay: qHTS assay to identify small molecule agonists of the estrogen receptor alpha (ER-alpha) signaling pathway using the BG1 cell line (AID 743079); conditions: BG1Luc4E2 cells, ERE-luciferase agonist, 22 h; activation: at 70.3 µM (top of the series) unless noted; also: potency is read from the fitted curve at half-maximal effect; nearly all actives have a fitted effect of over 20% in size
# Aromatase (Homo sapiens) = Aromatase (Homo sapiens) (UniProt P11511); assay: qHTS assay to identify aromatase inhibitors (AID 743083); also: potency is read from the fitted curve at half-maximal effect; nearly all actives have a fitted effect of over 55% in size
# Chain of UniProt P11511 (P11511 whole entry, looked up): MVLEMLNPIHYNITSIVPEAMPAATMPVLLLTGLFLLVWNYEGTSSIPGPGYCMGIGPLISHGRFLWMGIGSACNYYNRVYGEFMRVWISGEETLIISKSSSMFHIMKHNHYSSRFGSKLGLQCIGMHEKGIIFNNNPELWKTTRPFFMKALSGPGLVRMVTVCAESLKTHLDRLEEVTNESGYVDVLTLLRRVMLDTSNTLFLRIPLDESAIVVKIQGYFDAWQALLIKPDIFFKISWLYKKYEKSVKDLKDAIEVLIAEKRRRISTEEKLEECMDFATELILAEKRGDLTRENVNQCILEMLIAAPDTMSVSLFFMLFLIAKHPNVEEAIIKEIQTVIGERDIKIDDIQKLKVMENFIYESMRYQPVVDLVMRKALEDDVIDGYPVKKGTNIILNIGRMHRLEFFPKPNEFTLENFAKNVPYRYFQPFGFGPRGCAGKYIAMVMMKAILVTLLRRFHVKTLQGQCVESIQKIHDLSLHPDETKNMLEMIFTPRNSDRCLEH
# [12] = target: Estrogen receptor (Homo sapiens) (UniProt P03372); assay: qHTS assay to identify small molecule agonists of the estrogen receptor alpha (ER-alpha) signaling pathway (AID 743075; calls by dose curve;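 also: HEK293 GripTite cells with ER-alpha and UAS-driven beta-lactamase reporter; potency is read from the fitted curve at half-maximal effect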)
# [13] = target: Androgen receptor (Homo sapiens) (UniProt P10275); assay: qHTS assay to identify small molecule antagonists of the androgen receptor (AR) signaling pathway using the MDA cell line (AID 743042; also: % is scaled to controls: 0 for no effect and ±100 for the full control effect; nearly all actives have a fitted effect of over 55% in size)
# Chain of UniProt P10275 (P10275 whole entry, looked up): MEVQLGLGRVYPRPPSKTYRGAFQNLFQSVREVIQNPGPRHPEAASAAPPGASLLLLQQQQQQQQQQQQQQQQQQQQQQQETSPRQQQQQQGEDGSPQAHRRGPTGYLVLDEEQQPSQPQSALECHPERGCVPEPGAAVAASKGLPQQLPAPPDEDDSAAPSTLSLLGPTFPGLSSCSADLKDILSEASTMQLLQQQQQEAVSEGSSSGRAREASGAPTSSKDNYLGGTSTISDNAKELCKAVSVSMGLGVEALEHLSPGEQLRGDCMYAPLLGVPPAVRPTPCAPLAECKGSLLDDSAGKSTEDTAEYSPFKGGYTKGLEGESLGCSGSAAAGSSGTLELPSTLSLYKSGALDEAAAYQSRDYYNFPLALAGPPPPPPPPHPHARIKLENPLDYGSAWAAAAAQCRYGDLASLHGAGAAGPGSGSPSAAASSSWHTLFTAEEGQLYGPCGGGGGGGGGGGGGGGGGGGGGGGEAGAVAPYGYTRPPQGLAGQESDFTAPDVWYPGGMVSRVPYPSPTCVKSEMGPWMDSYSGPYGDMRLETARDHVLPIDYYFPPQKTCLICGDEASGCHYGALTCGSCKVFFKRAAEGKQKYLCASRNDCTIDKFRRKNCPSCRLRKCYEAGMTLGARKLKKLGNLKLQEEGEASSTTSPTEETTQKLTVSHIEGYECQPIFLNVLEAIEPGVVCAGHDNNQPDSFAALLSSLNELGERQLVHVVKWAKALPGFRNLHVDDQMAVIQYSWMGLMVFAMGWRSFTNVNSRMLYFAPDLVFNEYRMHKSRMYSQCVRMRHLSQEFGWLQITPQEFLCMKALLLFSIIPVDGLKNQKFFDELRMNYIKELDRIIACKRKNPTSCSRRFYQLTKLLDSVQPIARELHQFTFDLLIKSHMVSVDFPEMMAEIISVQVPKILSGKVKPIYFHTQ
# In short: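 Antagonist mode: compounds plus R1881 agonist added to MDA-kb2 AR-luc cells, incubated 16 h at 37C. Luciferase reporter luminescence quantified, with multiplexed CellTiter-Fluor readout for cell viability.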
# Tags tell the direction and shape of the fitted curve or compound fluorescence and quenching.
smiles,measurement,setting,value
C=C(C#N)C(=O)OCC,Potency,[1],inactive
same,Potency,[2],"inactive and inconclusive: 68.6 µM [cytotoxic, single point]"
same,Potency,[3],"inconclusive: 68.6 µM [inhibitor, single point]"
same,Potency,[4],"inconclusive: 19.5 µM [cytotoxic, partial curve, poor fit]"
Cc1[nH]cnc1C[C@H]1CCc2c(C)c3ccccc3n2C1=O,Potency,[1],"inconclusive: 6.74 µM [cytotoxic, partial curve, poor fit] and inconclusive: 6.75 µM [cytotoxic, partial curve]"
same,Potency,[2],inconclusive: 26.6 µM [cytotoxic]
same,Potency,[5],"inconclusive: 23.7 µM [inhibitor, partial curve, poor fit]"
same,activation,[5],inconclusive: -7.95% [phenotype inactive]
same,Potency,[4],"inconclusive: 5.36 µM [cytotoxic, full curve, poor fit]"
same,Potency,[6],"inconclusive: 26.6 µM [cytotoxic, partial curve]"
same,Potency,[7],"inconclusive: 37.6 µM [cytotoxic, partial curve]"
OC12N=C(c3ccccc3)SC1Cc1cc(Cl)ccc12 (stereo not drawn),Potency,[1],"inconclusive: 54.9 µM [cytotoxic, partial curve, poor fit]"
same,Potency,[2],"inconclusive: 68.6 µM [cytotoxic, single point]"
same,Potency,[5],"inconclusive: 48.6 µM [inhibitor, partial curve, poor fit]"
same,Potency,[8],active: 54.9 µM [inhibitor]
COC(=O)C1=C(C)NC(C)=C(C(=O)OCC(C)=O)C1c1ccccc1[N+](=O)[O-] (stereo not drawn),Potency,[1],inconclusive: 23.9 µM [cytotoxic]
same,Potency,[9],"inconclusive: 29.8 µM [cytotoxic, partial curve]"
same,activation,[5],inconclusive: -9.95% [phenotype inactive]
same,Potency,[8],"inconclusive: 26.8 µM [rising, partial curve, poor fit]"
same,"activity change, negative = inhibition",[10],inconclusive: -31.2%
same,Potency,[6],"inconclusive: 29.8 µM [cytotoxic, partial curve]"
same,Potency,[7],active: 26.6 µM
CN(C)CCCN1c2ccccc2CCc2ccccc21,Potency,[1],"inconclusive: 3.38 µM [cytotoxic, full curve, poor fit] and inconclusive: 24.5 µM [cytotoxic, partial curve]"
same,Potency,[2],"active: 5.96 µM and inconclusive: 6.11 µM [cytotoxic, full curve]"
same,Potency,[3],"inconclusive: 7.7 µM [inhibitor, full curve]"
same,activation,[5],inconclusive: -7.38% [phenotype inactive]
same,Potency,[4],"inconclusive: 61.6 µM [cytotoxic, single point]"
OCCN1CCN(CCCN2c3ccccc3C=Cc3ccccc32)CC1,Potency,[1],inconclusive: 21.3 µM [cytotoxic]
same,Potency,[3],active: 11.9 µM and active: 26.6 µM
same,activation,[5],inconclusive: -8.45% [phenotype inactive]
same,Potency,[4],"inconclusive: 10.7 µM [cytotoxic, partial curve] and inactive"
same,Potency,[11],inconclusive: 26.6 µM [inhibitor]
same,Potency,[10],"inconclusive: 18.8 µM [falling, partial curve]"
same,Potency,[6],active: 10.6 µM
O=[N+]([O-])c1cccc(C(F)(F)F)c1,Potency,[1],inactive
same,Potency,[3],inactive
COc1ccc(C2C(=O)c3ccccc3C2=O)cc1,Potency,[1],inactive
same,Potency,[2],"inconclusive: 29.8 µM [cytotoxic, single point]"
CCCOC(=O)c1c(Cl)c(Cl)c(Cl)c(Cl)c1C(=O)OCCC,Potency,[1],"inconclusive: 0.0776 µM [cytotoxic, full curve, poor fit]"
same,Potency,[9],"inconclusive: 12.2 µM [rising, full curve]"
same,Potency,[3],"inconclusive: 68.6 µM [inhibitor, single point]"
same,Potency,[6],inactive
same,Potency,Aromatase (Homo sapiens),"inconclusive: 8.63 µM [inhibitor, partial curve, poor fit]"
CCO[Si](CCC1CCC2OC2C1)(OCC)OCC (stereo not drawn),Potency,[1],inactive
same,Potency,[2],"inconclusive: 27.3 µM [rising, partial curve, poor fit]"
CCCCCCCC(=O)Oc1c(Br)cc(C#N)cc1Br,Potency,[1],"inconclusive: 34.5 µM [cytotoxic, partial curve]"
same,Potency,[2],inconclusive: 68.3 µM [cytotoxic]
same,Potency,[3],"inconclusive: 68.3 µM [inhibitor, single point]"
same,Potency,[8],inconclusive: 43.5 µM [fluorescent]
same,Potency,[4],"inconclusive: 21.8 µM [cytotoxic, single point]"
same,Potency,[11],"inconclusive: 68.3 µM [inhibitor, single point]"
same,Potency,[7],inconclusive: 68.3 µM [cytotoxic]
CCCCCCCCCCCCCCCCCCOCC(O)CO (stereo not drawn),Potency,[1],inactive
same,Potency,[9],inactive
same,Potency,[8],inconclusive: 26.8 µM [activator]
same,Potency,[4],inactive
same,Potency,[12],"inconclusive: 2.39 µM [activator, partial curve]"
O=C1CCCCCN1SSN1CCCCCC1=O,Potency,[1],inconclusive: 49 µM [cytotoxic]
same,Potency,[2],"inconclusive: 61.1 µM [cytotoxic, partial curve]"
same,Potency,[5],inactive
same,Potency,[8],"inconclusive: 8.71 µM [rising, partial curve, poor fit]"
same,Potency,Aromatase (Homo sapiens),"inconclusive: 68.6 µM [inhibitor, single point]"
same,Potency,[7],inconclusive: 54.5 µM [cytotoxic]
CC[N+](CC)(CC)CCOc1ccc(/C=C/c2ccccc2)cc1,Potency,[1],"inconclusive: 10.7 µM [cytotoxic, partial curve]"
same,Potency,[3],"inconclusive: 23.7 µM [inhibitor, partial curve]"
same,Potency,[8],active: 5.35 µM [inconclusive]
same,Potency,[4],"inconclusive: 30.1 µM [rising, single point]"
same,Potency,[11],"inconclusive: 23.7 µM [inhibitor, partial curve]"
same,Potency,[6],"inconclusive: 29.8 µM [cytotoxic, single point]"
Cc1nccn1-c1ccc(Sc2cccc(C3(C(N)=O)CCOCC3)c2)cc1,Potency,[1],active: 4.9 µM
same,activation,[5],inconclusive: -7.07% [phenotype inactive]
same,Potency,[8],active: 0.275 µM [inconclusive]
same,Potency,[4],inactive
same,Potency,[12],"inconclusive: 7.76 µM [falling, full curve]"
same,Potency,[11],"inconclusive: 0.686 µM [inhibitor, full curve]"
CC(C)(Cc1c[nH]c2ccccc12)NCC(O)COc1ccccc1C#N (stereo not drawn),Potency,[1],inactive
same,Potency,[9],"inconclusive: 33.5 µM [cytotoxic, single point]"
same,activation,[5],inconclusive: -9.15% [phenotype inactive]
COC(=O)C1=C(C)NC(C)=C(C(=O)OCCN2CCN(C(c3ccccc3)c3ccccc3)CC2)C1c1cccc([N+](=O)[O-])c1 (stereo not drawn),Potency,[1],"inconclusive: 26.8 µM [cytotoxic, single point]"
same,Potency,[2],active: 8.41 µM
same,Potency,[8],active: 8.49 µM [inconclusive]
same,Potency,[11],"inconclusive: 21.1 µM [inhibitor, partial curve]"
same,"activity change, negative = inhibition",[10],inconclusive: -26.2%
same,Potency,[6],active: 3.76 µM
CC(C)=O,Potency,[1],inactive
same,Potency,[13],inactive
CCCCC(=O)O[C@]1(C(=O)CO)[C@@H](C)C[C@H]2[C@@H]3CCC4=CC(=O)C=C[C@]4(C)[C@@]3(F)[C@@H](O)C[C@@]21C,Potency,[1],"inconclusive: 21.9 µM [cytotoxic, partial curve, poor fit]"
same,Potency,[2],"inconclusive: 68.6 µM [cytotoxic, single point]"
same,Potency,[8],inconclusive: 43.6 µM
same,Potency,[11],"inconclusive: 61.1 µM [inhibitor, partial curve, poor fit]"
same,Potency,[10],"inconclusive: 0.0017 µM [rising, full curve, poor fit]"
COc1ccc(C)cc1[N+](=O)[O-],Potency,[1],inactive
same,Potency,[2],inactive
